Test results published in PMC5515408.
The list shows a part of the results. At the low end of the ranking the order means little.

Each sequence was assayed on MYC (p64) + MAX (p21), in MYC:MAX (assay: protein-binding microarray (anti-MAX antibody)). Settings: PBM: 15 mM Tris-HCl pH 7.5, 100 mM KCl, 0.075% NP40, 7.5 mM beta-mercaptoethanol, 375 ng/ul BSA, 8 ng/ul poly(dA-dT):(dA-dT), 550 ng complex, 60 min, room …; high values mean tight binding; double strand, one strand shown; sequences stand for … in CCGGC…TTAATAGCTAAGATTACTATATCGACG.

Sequence | binding signal (log2 normalized fluorescence)
TGAGCTCAAGTA | -0.0441
TGAGTTCCAGTA | -0.207
TGACATGTGGTA | 0.77
TGAATGTACGTA | 0.276
TGATTAGCCGTA | -0.18
TGACTCAGTGTA | 0.119
AAACACGTAGTA | 0.488
GTACCCGTGGTA | 0.435
TGACAAGTGGTC | 0.241
TGATTACCGGTA | -0.0901
ATTTACAGGCTA | 0.18
TGAACGTGCGTA | 0.437
TGAAATGTCGTA | 0.012
TGATTCGGCGTA | -0.136
TGAACTTTCGTA | -0.0208
TGAGAATCCGTA | -0.0611
TCTCTGAATGAT | 0.00916
TGATCCTAGGTA | -0.0694
TGATCATAAGTA | 0.109
TGCTCCGTGGTA | 0.147
TGACGTAGGGTA | -0.0315
TGAGTGTCGGTA | 0.198
TGATATCTCGTA | -0.00572
TGAACCTTAGTA | 0.102
TGACTATGCGTA | 0.11

Sequence | binding signal (log2 normalized fluorescence)
TGAATATGCGTA | 0.185
TGACCTTGTGTA | 0.304
TGACTTGCAGTA | 0.164
TGACCTGCTGTA | 0.139
TGAAGTCTAGTA | -0.2
TGAGTATGAGTA | 0.0761
TGCGCCGTGGTA | 0.182
TGAGATAGAGTA | -0.226
TGACTTCATGTA | 0.237
TGATTTCGCGTA | -0.012
TGAAAACAGGTA | 0.158
TGAGATTGAGTA | -0.202
TGACCGCATGTA | 0.716
TGAGACAAGGTA | 0.136
TGATATCTAGTA | -0.135
TGAAACCCGGTA | 0.000494
TGACGATCAGTA | -0.0317
TGAATCCGGGTA | -0.119
TGATGCGGTGTA | 0.139
TGATAGGGCGTA | -0.245
TGATTAAGAGTA | -0.149
CGACACGCGGTA | 0.697
TGAGCCTGCGTA | 0.0284
TGACTCATCGTA | 0.312
TGAGACTACGTA | 0.124

Sequence | binding signal (log2 normalized fluorescence)
TGAGGGATTGTA | 0.0678
TGATTGAACGTA | 0.0382
TGAGACGTCTTA | 0.0526
TGATTGGATGTA | -0.0229
TGACGATAGGTA | -0.062
TGATATCGAGTA | 0.105
TGATGGCTTGTA | -0.00492
TGAGGGGGCGTA | 0.74
TGACGGCCAGTA | -0.00272
TGACTTTTCGTA | -0.181
TGATTTGTTGTA | -0.137
TGAATACAGGTA | 0.224
AGACACTTAGTA | 0.33
TGACGGGTAGTA | 0.0364
TGACATAAGGTA | 0.22
TGATCAGATGTA | 0.217
TGTCAAGTGGCA | 0.1
TGAAACACAGTA | 0.249
TAACACGTAGTA | 0.416
TGAAGGGCCGTA | 0.0719
AAACACGTTGTA | 0.68
GCCTAGTTGTGC | -0.0551
TGAACTCAAGTA | -0.155
TGACATTGCGTA | 0.37
AGTAATCGCTGC | -0.082
